Source: the supplement of paper PMC7826260
The list shows a part of the results. One pool of 16,384 single-stranded DNAs met each Rep nickase domain in vitro for 1 h at 37 °C with 3 µM enzyme; only the middle of the 90-letter strands is printed. The score is log2 (uncut reads / reads without enzyme); more negative means more cut, near 0 not cut, and no call is made. Reads are scaled to the total; where an enzyme cuts many sequences, the uncut ones exceed 0.

tested on: T1, Rep nickase domain of Muscovy duck circovirus; assay: uncleaved DNA left, log2 of reads against the no-enzyme library (log2 ratio); higher = less cleavage (more negative = more Rep cleavage of the k-mer); sequences stand for … in CTCGTCCG…ACCGGAGA
T1 sequence (Rep 1-111, printed without the tag): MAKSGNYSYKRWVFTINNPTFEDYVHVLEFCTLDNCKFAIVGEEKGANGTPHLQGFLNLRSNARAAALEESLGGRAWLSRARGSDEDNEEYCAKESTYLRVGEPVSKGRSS
Description: (§1)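 A pool of 90-nt single-stranded DNAs with seven random bases just before the constant AC of the nick site (name = the seven bases) was cut by 3 µM recombinant His6-SUMO-tagged Rep nickase domain (300 nM DNA, 50 mM HEPES pH 8.0, 50 mM NaCl, 1 mM MnCl2, 1 h, 37 °C, three replicates). Uncut DNA was amplified and sequenced.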

Sequence	uncleaved DNA left (log2)
TTTCCCG	-1.38
AGAATGA	0.0521
CTCAGAA	-0.0328
TGCGCCG	0.00644
TCTCATA	0.0832
ATCTGGC	0.0505
GTCGCTA	-0.077
ACAGCCA	0.0272
GTGGTGT	0.000445
CTTGTTC	-0.131
GTATCTG	0.0631
GCAGGGT	0.0565
CTCCTCG	0.1
GCAGGAC	0.0324
TACACGT	-0.0314
GTCGACA	0.0419
TGATTGT	-0.219
GCTAACC	-0.147
AAAATTG	-0.0108
TAATTAG	0.202

Sequence	uncleaved DNA left (log2)
TGATTAT	-0.858
CAGCTCA	0.0295
TGCTCCG	0.00438
TAACCAT	-0.205
GCCATAC	-0.013
TCCATTG	0.0874
GGTAAGG	0.231
CATCATA	-0.0057
TCCCGAA	-0.117
AATGCCT	-0.0939
AGCGCTT	0.0708
AGAGAGT	0.0119
AAAATTA	0.0679
GTCATCA	0.05
GATAAAT	0.0836
GACGGGT	0.185
CCGTGCC	0.152
GATTGCG	-0.186
ACCGGAG	-0.0971
TGTCGCA	-0.00143

tested on: T2, Rep nickase domain of banana bunchy top virus; assay: as above
T2 sequence (Rep 1-94, printed without the tag): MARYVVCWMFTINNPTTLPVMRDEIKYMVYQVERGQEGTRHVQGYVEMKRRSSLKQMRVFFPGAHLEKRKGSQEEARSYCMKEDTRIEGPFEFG
Description: as §1

Sequence	uncleaved DNA left (log2)
TTTCCCG	-0.0675
AGAATGA	0.102
CTCAGAA	0.0233
TGCGCCG	-0.147
TCTCATA	-0.0351
ATCTGGC	0.112
GTCGCTA	0.0253
ACAGCCA	-0.0563
GTGGTGT	0.018
CTTGTTC	-0.0516
GTATCTG	0.0889
GCAGGGT	0.101
CTCCTCG	0.0896
GCAGGAC	0.0315
TACACGT	-0.191
GTCGACA	0.0741
TGATTGT	0.083
GCTAACC	-0.0703
AAAATTG	-0.0385
TAATTAG	0.0665

Sequence	uncleaved DNA left (log2)
TGATTAT	0.102
CAGCTCA	0.0378
TGCTCCG	-0.119
TAACCAT	-0.0186
GCCATAC	-0.142
TCCATTG	-0.0107
GGTAAGG	0.122
CATCATA	-0.108
TCCCGAA	-0.00405
AATGCCT	-0.219
AGCGCTT	0.0982
AGAGAGT	-0.0731
AAAATTA	0.0938
GTCATCA	0.171
GATAAAT	0.056
GACGGGT	-0.0101
CCGTGCC	0.0671
GATTGCG	-0.0604
ACCGGAG	-0.034
TGTCGCA	0.0351

tested on: T3, Rep nickase domain of cabbage leaf curl virus; assay: as above
T3 sequence (Rep 1-116, printed without the tag): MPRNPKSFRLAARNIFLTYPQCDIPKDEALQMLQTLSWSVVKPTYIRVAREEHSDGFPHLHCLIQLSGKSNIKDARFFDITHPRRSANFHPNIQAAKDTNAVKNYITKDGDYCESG
Description: as §1

Sequence	uncleaved DNA left (log2)
TTTCCCG	-0.906
AGAATGA	0.173
CTCAGAA	-0.0625
TGCGCCG	-0.474
TCTCATA	0.0462
ATCTGGC	-0.125
GTCGCTA	0.325
ACAGCCA	-0.333
GTGGTGT	0.479
CTTGTTC	0.017
GTATCTG	0.157
GCAGGGT	0.346
CTCCTCG	-0.678
GCAGGAC	0.614
TACACGT	-0.39
GTCGACA	0.387
TGATTGT	-0.241
GCTAACC	-0.154
AAAATTG	-0.572
TAATTAG	-1.09
